# Source: the supplement of paper PMC9446081
# About 220 (0.56%) of roughly 39,000 compounds showed activity. The list shows a part of the results.
# Tested on: Escherichia coli K-12 BW25113
# Assay: relative growth (OD600 normalised to plate interquartile mean) (fraction); higher = less growth inhibition, active = 0.2 or less
# Settings: 50 µM; LB; incubation time: overnight (16-24 h)
# 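Note: static incubation at 37 °C against the wild-type strain, values averaged over two biological replicates.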
row,Compound,relative growth
1,CO[C@@H]1CN(C)C(=O)c2ccc(NC(C)=O)cc2OC[C@H](C)N(S(=O)(=O)c2cn(C)cn2)C[C@H]1C,inactive: 0.999
2,C[C@H]1CN([C@@H](C)CO)S(=O)(=O)c2ccc(-c3ccc(C(=O)N(C)C)cc3)cc2O[C@@H]1CN(C)C(=O)C1CCOCC1,inactive: 0.974
3,NC[C@H](c1ccco1)N1CCN(c2ccc(F)cc2)CC1,inactive: 0.999
4,C[C@H](CO)N1C[C@H](C)[C@H](CN(C)S(C)(=O)=O)Oc2ccc(NC(=O)Nc3ccc(F)cc3)cc2C1=O,inactive: 0.978
5,CN1CCN(C(=O)C[C@H]2C=C[C@@H](NC(=O)Nc3ccccc3F)[C@H](CO)O2)CC1,inactive: 0.994
6,C[C@@H]1CCCCO[C@@H](CN(C)C(=O)C2CCCCC2)[C@@H](C)CN([C@@H](C)CO)C(=O)c2cc(NS(=O)(=O)c3ccccc3)ccc2O1,inactive: 0.998
7,C[C@@H]1CCCCO[C@@H](CN(C)C(=O)c2ccncc2)[C@@H](C)CN([C@@H](C)CO)C(=O)c2cc(NC(=O)NC3CCCCC3)ccc2O1,inactive: 1.02
8,COc1ccc(NC(=O)Nc2ccc3c(c2)C(=O)N([C@@H](C)CO)C[C@@H](C)[C@@H](CN(C)S(=O)(=O)c2ccccc2)OCCCC[C@@H](C)O3)cc1,inactive: 1.01
9,COc1ccc2c3c([nH]c2c1)[C@@H](CO)N(Cc1ccc(cc1)Cl)C[C@]13CCN(CC1)Cc1ccccc1,inactive: 0.976
10,C[C@@H]1CN([C@H](C)CO)C(=O)Cc2cc(NC(=O)C3CCCCC3)ccc2O[C@@H]1CN(C)S(C)(=O)=O,inactive: 1.02
11,COc1ccc2c(c1)n(CCN)c(=O)n2C(=O)[C@@H]1C[C@H](C)CC[C@H]1C(C)C,inactive: 0.358
12,Cc1ccc(S(=O)(=O)N2C[C@@H](O)COC[C@H]3O[C@@H](CC(=O)NCCCN(C)C)CC[C@@H]32)cc1,inactive: 1.01
13,Cc1cnc2c(c1NCCN(C)C)c(=O)n(C)c(=O)n2C,inactive: 1
14,COc1ccc(C#Cc2cnc3c(c2)C(=O)N([C@H](C)CO)C[C@H](C)[C@@H](CN(C)CC2CCOCC2)O3)cc1,inactive: 1.03
15,O=C1C=CC(O)(CC(=O)OC[C@H]2O[C@@H](OC(=O)CC3(O)C=CC(=O)C=C3)[C@H](O)[C@@H](O)[C@H]2O)C=C1,inactive: 0.991
16,O=C(C[C@H]1CC[C@H]2[C@@H](COC[C@@H](O)CN2C(=O)Nc2ccc(C(F)(F)F)cc2)O1)NCc1ccncn1,inactive: 1.01
17,CCCNC(=O)N1C[C@]2(CCN(CC2)S(=O)(=O)c2ccccc2)c2c(n(c3cc(ccc23)OC)C)[C@H]1CO,inactive: 1.01
